In the RNAGym collection of RNA variant scans (doi:10.1093/nar/gkz1192):
Read counts are not given, so values of variants with three or more changes are uncertain.

B1: CPEB3 Ribozyme (parent)
chain: UAACAGGGGGCCACAGCAGAAGCGUUCACGUCGCAGCCCCUGUCAGAUUCUGGUGAAUCUGCGAAUUCUGCUGUAUAUCUC

Variants of: B1
Assay: self-cleavage, relative activity (ratio to wild type); higher = more cleavage; in vitro, sequencing
Summary of the method: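 Libraries of CPEB3 self-cleaving ribozyme mutants came from rounds of error-prone PCR and carried barcodes, which DNA sequencing matched to variants. In vitro transcription used T7 RNA polymerase at 37°C for 5 hours, with a further 15 min in DNase I before EDTA stopped the reaction; the ribozymes cleaved during both steps. The RNA was reverse transcribed with template switching and sequenced on Illumina. Relative activity is the cleaved/total read fraction of a variant divided by that of the unmutated ribozyme, averaged over three batches with at least 5 reads.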

Variant | self-cleavage
U1A G16U A18U U49C U67C A77G | 0.12
U1A G24A U25C U41C U49C A56G | 0.07
U1A G24U C44G | 0.07
U1A G30A A45C | 0.08
U1A G30U A35U U41A U54C A57G U67C | 0.03
U1A G36C C62G | 0.19
U1A G52A G55A A77U U80C | 1.1
U1A U25A A77G | 0.35
U1A U25C A56U A65G | 0.08
U1A U25C U31C U72A | 0.14
U1A U26A U41C | 0.58
U1A U26A U76C | 0.69
U1A U26C A47C | 0.15
U1A U26C U72A | 0.4
U1A U31A U67C U76A | 0.14
U1A U31C A35G | 0.81
U1A U31C U41C U51C A75U C81U | 0.83
U1A U41A A45G | 0.2
U1A U41A U78A | 0.37
U1A U41C A56C | 0.27
U1A U41C U48C U69A U72C | 0.16
U1A U49A A56G A64U U69A | 0.15
U1A U49A U54C U69C U72A U78A | 0.13
U1A U49A U66C U69A | 0.15

Variant | self-cleavage
U1A U51C G55A | 0.59
U1A U60A U69A U80C | 0.33
U1A U60C A75U A77G | 0.57
U1A U76A U80A | 1.1
U1C A2C A47G A56G G73C U78G | 0.33
U1C A2G A5U A13C U25A | 0.54
U1C A2G A15G A21G U41A | 0.27
U1C A2G A20C U66C | 0.09
U1C A2G A20U U41A U43C U72A A75U | 0.05
U1C A2G A56G A57G U60C | 0.24
U1C A2G C50U U76C U80C | 0.59
U1C A2G U25C U49C U51C | 0.52
U1C A2U A15U U25A G33C U43G U69A | 0.05
U1C A2U A57G | 0.81
U1C A2U C11U G24C U25C U67C | 0.05
U1C A2U C38U A65U | 0.06
U1C A2U U25A U26A A47G U51C A77C | 0.04
U1C A2U U31C U48C U51C U58C U69A | 0.07
U1C A2U U43C A56G U60C | 0.27
U1C A3G A13U A45G A56U A57G G63U | 0.23
U1C A3G A18G A45G U49C C62A | 0.02
U1C A3G A18U U69G | 1.15
U1C A3G A20G U26C | 0.6
U1C A3G A20G U48C G53A A64G | 0.13

Variant | self-cleavage
U1C A3G G6A U49A | 0.14
U1C A3G U48C U49C C62A U72C | 0.14
U1C A3G U51C C68U A75U | 0.94
U1C A3U A18G A20G U58C | 0.52
U1C A3U A28G U49A | 0.41
U1C A3U U25C | 0.1
U1C A5C A28G A35U U51C G53A U67C | 0.19
U1C A5C G7C U78C | 0.64
U1C A5C U31C A47G | 0.48
U1C A5G A13G | 0.33
U1C A5G A13U A35G C40A U60A | 0.33
U1C A5G A13U U41A C44A U60C | 0.36
U1C A5G A13U U60C A64G | 0.23
U1C A5G A15G A18G U26C U51A U78A | 0.65
U1C A5G A15G U60A G70C C81A | 0.09
U1C A5G A18G U67C U76A | 0.2
U1C A5G A18U U31A U41C A56U U72G | 0.05
U1C A5G A21C U25C A56G | 0.12
U1C A5G C14A A15G C32A U67C | 0.08
U1C A5G C34A U66C U69A | 0.16
U1C A5G G8U U43G A56U U80C | 0.06
U1C A5G U25C A35G U43C U67A | 0.19
U1C A5G U48C | 0.62
U1C A5U A15G U41C U43C A75G | 0

Variant | self-cleavage
U1C A5U C37U U74C | 0.65
U1C A5U G10U A45G A57G U69C | 0.05
U1C A13G A18U A45U | 0.06
U1C A13G A28G | 0.55
U1C A13G A28G U48C U60C | 0.17
U1C A13G C79U | 1.06
U1C A13G G16A C62A A64G | 0.08
U1C A13G U26A A35G U67C | 0.36
U1C A13G U31C A64U | 0.33
U1C A13G U54A G63C | 0.64
U1C A13U A64G U69C | 0.41
U1C A13U C17U U41A A65G | 0.06
U1C A13U G24C | 0.19
U1C A13U G24C U72G | 0.25
U1C A13U U25C A57G U72A | 0.06
U1C A13U U26C C50U | 0.26
U1C A13U U31C U43C U49C U72A U74C | 0.05
U1C A13U U31C U80C | 1.03
U1C A13U U78A | 0.85
U1C A15G A18U U49A U60C U80C | 0.06
U1C A15G A21G C62A U72C | 0.36
U1C A15G G22A G52A U67A U74C A77U | 0.04
U1C A15G G24A U31C A64U U74C | 0.04
U1C A15G U25A U43C U58A A77U | 0.02

Variant | self-cleavage
U1C A15G U31A | 0.33
U1C A15G U41A A45U A57G U58A | 0.05
U1C A15G U41C U66G A77G | 0.34
U1C A15G U60C A64C | 0.39
U1C A15U A18G G33A A56G A65U | 0.05
U1C A15U G19U U25C | 0.24
U1C A15U U31C C44U A57G U69A | 0.2
U1C A18C A21G | 0.06
U1C A18C U41C U54G A56U U69C | 0.1
U1C A18G A45G | 0.48
U1C A18G A56G U69A | 0.19
U1C A18G A65G U69A | 0.2
U1C A18G C29U A56U C59A | 0.19
U1C A18G U25C U60C U72C | 0.38
U1C A18G U25C U69A | 0.03
U1C A18G U26A | 0.36
U1C A18G U51A G61A C68U | 0.43
U1C A18U A28U A35G U74C | 0.96
U1C A18U A35G A45U C62U A64U U66G | 0.2
U1C A18U A35U U67C U69A | 0.07
U1C A18U A64G U78C | 0.17
U1C A18U U41C A64G | 0.11
U1C A18U U41C U69C U78C | 0.57
U1C A20C A35G U69C | 0.83

Variant | self-cleavage
U1C A20G A45G | 0.53
U1C A20G A45G U51A U58A | 0.32
U1C A20G A56C | 0.26
U1C A20G U31C C40A | 0.28
U1C A20G U31C U43C | 0.11
U1C A20G U67A | 0.2
U1C A20U A56G U60G A64G | 0.16
U1C A20U U54A A56G | 0.47
U1C A20U U54C U67G U69C U72A | 0.03
U1C A21G C27A A28G C34A | 0.33
U1C A21G C32U G33A | 0.13
U1C A21G C39G U49C U54A U69C A75U | 0.03
U1C A21G U26C A77G U78C | 0.06
U1C A28C U51A | 0.44
U1C A28G A35U U41A G52A A77G | 0.1
U1C A28G A45G | 0.32
U1C A28G G33A C79U | 0.04
U1C A28G G52A U72C | 0.85
U1C A28G U41C A45U U48C A56U U69A | 0.04
U1C A28U G42C | 0.26
U1C A28U U41A G55C U72C | 0.17
U1C A28U U66C | 0.27
U1C A35C U41C U69C A75G | 0.4
U1C A35G G36U | 0.34

Variant | self-cleavage
U1C A35G U41A U67C | 0.08
U1C A35G U43A A56U U60C A64G | 0.39
U1C A35G U43A U58C U60A | 0.65
U1C A35G U48A U51A A65G | 0.41
U1C A35G U51C G52U A75U U80C | 1.2
U1C A35G U66C | 1.03
U1C A45G U54C U80C | 0.6
U1C A45G U80C | 0.54
U1C A47G A77G | 1.05
U1C A56G C62U A65G U67C C79A | 0.18
U1C A56G U69A A77G | 0.23
U1C A56U U58C | 0.1
U1C A57G U67C | 0.22
U1C A57G U74C A75G | 1.15
U1C A64G U78C | 0.62
U1C A65U U80C | 0.13
U1C A75G U78C | 0.67
U1C C4A U76C U78C | 1.21
U1C C11A C40A U69C U80C | 0.05
U1C C11A G53U U60C | 0.27
U1C C11G C27A G33A U67C C68A | 0.16
U1C C11G U25A U51C | 0.08
U1C C11G U60C | 0.08
